From PMC9260856
Results are given in words; binding and its absence hold for the method and conditions named. In cells and extracts the contact can be indirect. Some binding calls cover weakened binding; strength is not graded here. Tags and fused reporters may be left off the sequences shown.

Legend:
[1] = target: T1, HA-tagged full-length (FL) ZXDA, transfected in HEK293T cells (human) (UniProt P98168); assay: co-IP; HA-tagged ZXDA immunoprecipitated with anti-HA beads from whole-cell lysates of transfected HEK293T cells treated with MLN4924 for 6 h; immunoblot
T1 sequence: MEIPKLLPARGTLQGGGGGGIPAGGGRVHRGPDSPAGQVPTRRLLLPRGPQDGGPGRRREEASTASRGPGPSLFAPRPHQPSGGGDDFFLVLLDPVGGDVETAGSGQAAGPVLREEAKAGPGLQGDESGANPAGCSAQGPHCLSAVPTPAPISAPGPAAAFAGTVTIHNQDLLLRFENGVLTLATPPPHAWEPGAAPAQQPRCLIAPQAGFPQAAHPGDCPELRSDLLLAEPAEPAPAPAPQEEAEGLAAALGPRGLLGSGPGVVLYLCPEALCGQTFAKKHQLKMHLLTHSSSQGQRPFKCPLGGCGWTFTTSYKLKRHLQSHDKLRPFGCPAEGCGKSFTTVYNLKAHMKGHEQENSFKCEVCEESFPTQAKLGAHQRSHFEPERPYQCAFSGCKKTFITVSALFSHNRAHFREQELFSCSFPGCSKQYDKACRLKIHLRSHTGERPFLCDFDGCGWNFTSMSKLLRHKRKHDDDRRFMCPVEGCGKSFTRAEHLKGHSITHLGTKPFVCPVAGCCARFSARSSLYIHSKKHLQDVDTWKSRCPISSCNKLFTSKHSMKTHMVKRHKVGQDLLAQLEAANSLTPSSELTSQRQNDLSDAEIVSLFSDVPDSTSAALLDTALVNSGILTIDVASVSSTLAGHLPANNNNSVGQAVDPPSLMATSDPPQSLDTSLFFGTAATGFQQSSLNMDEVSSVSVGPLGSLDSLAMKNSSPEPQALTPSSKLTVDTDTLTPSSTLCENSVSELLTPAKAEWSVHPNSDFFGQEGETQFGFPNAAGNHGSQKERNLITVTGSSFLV

[2] = target: T2, StrepII-FLAG-tagged FBXO38 mutant C206R (SF-FBXO38 C206R) (human) (UniProt Q6PIJ6); assay: co-IP; SF-tagged bait affinity-purified on Strep-Tactin Sepharose from whole-cell lysates of transfected HEK293T cells (150 mM NaCl, 50 mM Tris pH 7.5, 0.4% Triton X-100, Benzonase), desthiobiotin elution, immunoblot; MLN4924 before collecting where indicated
T2 sequence: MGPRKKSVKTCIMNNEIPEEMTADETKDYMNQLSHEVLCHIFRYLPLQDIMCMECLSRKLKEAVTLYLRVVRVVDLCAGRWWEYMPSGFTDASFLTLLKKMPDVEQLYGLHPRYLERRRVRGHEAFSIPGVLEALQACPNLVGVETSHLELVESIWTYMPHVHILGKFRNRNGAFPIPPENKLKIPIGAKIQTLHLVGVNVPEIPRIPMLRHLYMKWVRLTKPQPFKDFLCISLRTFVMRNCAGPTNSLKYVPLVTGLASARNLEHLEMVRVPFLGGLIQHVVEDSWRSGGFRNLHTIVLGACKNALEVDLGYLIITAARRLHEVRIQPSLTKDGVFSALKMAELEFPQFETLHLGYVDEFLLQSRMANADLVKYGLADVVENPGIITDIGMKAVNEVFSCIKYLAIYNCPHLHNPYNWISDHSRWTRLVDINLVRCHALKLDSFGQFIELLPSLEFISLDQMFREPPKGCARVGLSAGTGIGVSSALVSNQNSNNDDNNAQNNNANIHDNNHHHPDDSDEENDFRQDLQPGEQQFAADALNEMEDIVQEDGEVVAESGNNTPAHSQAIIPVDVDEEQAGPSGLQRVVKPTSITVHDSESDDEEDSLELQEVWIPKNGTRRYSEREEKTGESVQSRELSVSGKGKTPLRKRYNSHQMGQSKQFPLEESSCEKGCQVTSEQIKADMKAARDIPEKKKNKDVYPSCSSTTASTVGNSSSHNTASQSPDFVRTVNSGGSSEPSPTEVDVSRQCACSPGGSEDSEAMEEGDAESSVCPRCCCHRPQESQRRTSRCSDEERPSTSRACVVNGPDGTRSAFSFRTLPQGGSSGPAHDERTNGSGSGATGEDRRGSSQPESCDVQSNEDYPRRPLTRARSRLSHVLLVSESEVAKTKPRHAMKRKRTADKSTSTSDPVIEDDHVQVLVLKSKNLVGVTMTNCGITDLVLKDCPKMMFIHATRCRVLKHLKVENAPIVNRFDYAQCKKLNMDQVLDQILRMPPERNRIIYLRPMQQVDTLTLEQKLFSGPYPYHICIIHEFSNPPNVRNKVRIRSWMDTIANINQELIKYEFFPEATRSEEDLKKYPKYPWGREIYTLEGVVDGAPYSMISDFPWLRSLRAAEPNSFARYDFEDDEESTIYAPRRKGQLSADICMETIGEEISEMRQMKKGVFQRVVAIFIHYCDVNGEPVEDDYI

B1: centromere protein B (CENP-B), endogenous in HEK293T cells (protein, UniProt P07199 1-599)
chain: MGPKRRQLTFREKSRIIQEVEENPDLRKGEIARRFNIPPSTLSTILKNKRAILASERKYGVASTCRKTNKLSPYDKLEGLLIAWFQQIRAAGLPVKGIILKEKALRIAEELGMDDFTASNGWLDRFRRRHGVVSCSGVARARARNAAPRTPAAPASPAAVPSEGSGGSTTGWRAREEQPPSVAEGYASQDVFSATETSLWYDFLPDQAAGLCGGDGRPRQATQRLSVLLCANADGSEKLPPLVAGKSAKPRAGQAGLPCDYTANSKGGVTTQALAKYLKALDTRMAAESRRVLLLAGRLAAQSLDTSGLRHVQLAFFPPGTVHPLERGVVQQVKGHYRQAMLLKAMAALEGQDPSGLQLGLTEALHFVAAAWQAVEPSDIAACFREAGFGGGPNATITTSLKSEGEEEEEEEEEEEEEEGEGEEEEEEGEEEEEEGGEGEELGEEEEVEEEGDVDSDEEEEEDEESSSEGLEAEDWAQGVVEAGGSFGAYGAQEEAQCPTLHFLEGGEDSDSDSEEEDDEEEDDEDEDDDDDEEDGDEVPVPSFGEAMAYFAMVKRYLTSFPIDDRVQSHILHLEHDLVHVTRKNHARQAGVRGLGHQS
For B1, the binding [1] was “binds” and the binding [2] was “no binding”.
